Several values for one entry are separate records, joined by “and”; a condition that tells them apart may be missing. Identical values can stand only once. Inconclusive results, whose numbers are uncertain, are shown with a selection of clear calls. Potencies beside an inconclusive call are fits to weak or partial responses and may not hold up. Some compounds were tested as several samples or in several runs, with calls that do not always agree. Activity calls are given as the source filed them. Unless noted, calls come from the whole dose curve.
Assays:
[1] = qHTS assay for small molecule agonists of the p53 signaling pathway (AID 651631); conditions: HCT-116 p53RE-bla reporter, beta-lactamase FRET ratio, 16 h; activation: at 73.3 µM (top of the series) unless noted; note: nearly all actives have a fitted effect of over 15% in size; for activation: % is set by controls: 0 for no effect and ±100 for the full control effect
Method in brief: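 HCT-116 cells carrying a beta-lactamase reporter under p53 response elements were dosed with compound for 16 h at 37 °C. LiveBLAzer B/G FRET substrate was then added for 2 h at room temperature, and fluorescence intensity was read to detect pathway agonism.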

[2] = qHTS assay for small molecules that induce genotoxicity in human embryonic kidney cells expressing luciferase-tagged ATAD5 - cell viability (AID 651634); conditions: HEK293T ATAD5-luc cells viability, CellTiter-Fluor, 15.5 h; series mostly up to 83.3 µM; note: nearly all actives have a fitted effect of over 25% in size; for activity, negative = cytotoxicity: % is set by controls: 0 for no effect and ±100 for the full control effect
Method in brief: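 Quantitative high-throughput format. HEK293T cells expressing ATAD5 fused to luciferase were plated at 2,000 cells/well and treated 15.5 hr with compound versus DMSO. Viability was determined by fluorescent live-cell protease substrate, 30 min at 37C.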

[3] = qHTS assay for small molecule disruptors of the mitochondrial membrane potential - cell viability (AID 720634); conditions: HepG2 viability, ATP luminescence (CellTiter-Glo), 1 h; series mostly up to 83.2 µM; note: nearly all actives have a fitted effect of over 20% in size
Method in brief: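 Same-well counter-screen: following the MMP dye addition, CellTiter-Glo was added to 1 hr compound-treated HepG2 cells and luminescence read after 30 min at room temperature.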

[4] = target: Glucocorticoid receptor (Homo sapiens) (UniProt P04150); test: qHTS assay to identify small molecule agonists of the glucocorticoid receptor (GR) signaling pathway (AID 720691; active = well fitted activation curve with a large enough effect in the signal ratio in the repeat runs, not every such curve was filed as active; inconclusive = weak or mixed curves, or effect the other way; inactive = no such curve, though single readings can be large or run the other way; the % refers to the signal ratio; for activation: % is set by controls: 0 for no effect and ±100 for the full control effect); conditions: GR-bla HeLa, beta-lactamase reporter ratio, 18 h; activation: at 62.4 µM (top of the series) unless noted
Chain of UniProt P04150 (P04150 whole entry, looked up): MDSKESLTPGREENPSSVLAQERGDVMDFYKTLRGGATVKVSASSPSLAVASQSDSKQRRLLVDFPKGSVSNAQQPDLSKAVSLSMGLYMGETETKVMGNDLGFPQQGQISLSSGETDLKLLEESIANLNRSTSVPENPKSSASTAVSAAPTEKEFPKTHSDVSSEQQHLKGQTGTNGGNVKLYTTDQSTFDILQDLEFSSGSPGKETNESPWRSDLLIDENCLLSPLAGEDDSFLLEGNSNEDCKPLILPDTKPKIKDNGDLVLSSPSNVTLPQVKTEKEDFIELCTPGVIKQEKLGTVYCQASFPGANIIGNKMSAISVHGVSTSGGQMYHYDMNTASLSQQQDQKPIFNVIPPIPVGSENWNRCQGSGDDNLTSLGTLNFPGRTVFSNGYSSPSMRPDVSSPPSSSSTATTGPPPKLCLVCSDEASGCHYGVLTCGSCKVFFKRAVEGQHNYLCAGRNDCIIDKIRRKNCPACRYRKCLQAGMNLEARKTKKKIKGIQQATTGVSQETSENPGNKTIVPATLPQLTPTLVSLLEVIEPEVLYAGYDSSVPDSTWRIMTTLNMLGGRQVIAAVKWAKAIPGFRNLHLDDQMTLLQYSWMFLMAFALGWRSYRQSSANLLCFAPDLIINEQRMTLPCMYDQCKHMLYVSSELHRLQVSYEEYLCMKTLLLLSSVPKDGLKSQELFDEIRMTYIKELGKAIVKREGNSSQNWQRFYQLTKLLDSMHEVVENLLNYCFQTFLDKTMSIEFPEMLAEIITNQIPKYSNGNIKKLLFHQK
Method in brief: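 A HeLa cervical cancer line expressing GR and a glucocorticoid response element-driven beta-lactamase gene is treated with compounds for 18 h; LiveBLAzer B/G FRET substrate is then applied and fluorescence read.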

[5] = qHTS assay to identify small molecule antagonists of the glucocorticoid receptor (GR) signaling pathway - cell viability counter screen (AID 720693; active = well fitted curve in the direction sought with a large enough effect in the repeat runs; inconclusive = weak or mixed curves; inactive = no such curve, though single readings can be large; an effect the other way counts as inactive or inconclusive; note: nearly all actives have a fitted effect of over 55% in size); conditions: GR-bla HeLa viability, CellTiter-Glo luminescence, 18 h, with 5 nM dexamethasone present; viability change, negative = cytotoxic: at 58.5 µM (top of the series) unless noted
[6] = qHTS assay for identifying genotoxic compounds that show differential cytotoxicity against isogenic chicken DT40 cell lines with known DNA damage response pathways - Rad54/Ku70 mutant cell line (AID 743015; active = well fitted curve in the direction sought with a large enough effect in the repeat runs; inconclusive = weak or mixed curves; inactive = no such curve, though single readings can be large; an effect the other way counts as inactive or inconclusive; note: nearly all actives have a fitted effect of over 60% in size); conditions: DT40 Rad54/Ku70 mutant viability, CellTiter-Glo, 40 h; activity change, negative = cytotoxicity: at 66.8 µM (top of the series)
[7] = target: Glucocorticoid receptor (Homo sapiens) (UniProt P04150); test: qHTS assay to identify small molecule antagonists of the glucocorticoid receptor (GR) signaling pathway (AID 720692; active = well fitted inhibition curve with a large enough effect in the signal ratio in the repeat runs, not every such curve was filed as active; inconclusive = weak or mixed curves, or effect the other way; inactive = no such curve, though single readings can be large or run the other way; the % refers to the signal ratio); conditions: GR-bla HeLa, beta-lactamase FRET ratio, dexamethasone-stimulated, 18 h; activity change, negative = inhibition: at 58.5 µM (top of the series) unless noted
Method in brief: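 GRE-bla HeLa line, dex-stimulated (5 nM final). Compound exposure 18 h, 37 C. Beta-lactamase FRET read after 2 h RT substrate.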

[8] = qHTS assay for identifying genotoxic compounds that show differential cytotoxicity against isogenic chicken DT40 cell lines with known DNA damage response pathways - wild type cell line (AID 743012; active = well fitted curve in the direction sought with a large enough effect in the repeat runs; inconclusive = weak or mixed curves; inactive = no such curve, though single readings can be large; an effect the other way counts as inactive or inconclusive; note: nearly all actives have a fitted effect of over 60% in size); conditions: DT40 wild type chicken cells viability, CellTiter-Glo, 40 h; activity change, negative = cytotoxicity: at 68.4 µM (top of the series) unless noted
Method in brief: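 300 wt DT40 cells/well; cpd (DMSO) pintool-transferred after ~0.5 h at 37 C/5% CO2; 40 h incubation; CellTiter-Glo added, 30 min RT; luminescence read.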

[9] = qHTS assay to identify small molecule antagonists of the androgen receptor (AR) signaling pathway - cell viability counter screen (AID 743033; active = well fitted curve in the direction sought with a large enough effect in the repeat runs; inconclusive = weak or mixed curves; inactive = no such curve, though single readings can be large; an effect the other way counts as inactive or inconclusive; note: nearly all actives have a fitted effect of over 45% in size); conditions: AR-bla HEK293 viability, CellTiter-Glo luminescence, 16 h; activity change, negative = cytotoxicity: at 58.5 µM (top of the series)
[10] = qHTS assay for small molecule disruptors of the mitochondrial membrane potential (AID 720635; active = well fitted curve in the direction sought with a large enough effect in the repeat runs; inconclusive = weak or mixed curves; inactive = no such curve, though single readings can be large; an effect the other way counts as inactive or inconclusive; for ratio activity, negative = MMP loss: % is set by controls: 0 for no effect and ±100 for the full control effect); conditions: HepG2 mitochondrial membrane potential, Mito-MPS dye ratio; ratio activity, negative = MMP loss: at 83.2 µM (top of the series) unless noted
Method in brief: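 HepG2 cells exposed to compound 1 hr at 37C, then Mito-MPS dye 30 min. Ratio read of aggregate (540/590 nm) versus monomer (490/535 nm) fluorescence.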

[11] = qHTS assay for identifying genotoxic compounds that show differential cytotoxicity against isogenic chicken DT40 cell lines with known DNA damage response pathways - Rev3 mutant cell line (AID 743014; active = well fitted curve in the direction sought with a large enough effect in the repeat runs; inconclusive = weak or mixed curves; inactive = no such curve, though single readings can be large; an effect the other way counts as inactive or inconclusive; note: nearly all actives have a fitted effect of over 55% in size); conditions: chicken DT40 Rev3-/- viability, CellTiter-Glo, 40 h; activity, negative = cytotoxicity: at 68.4 µM (top of the series)
[12] = qHTS assay for small molecule agonists of the p53 signaling pathway - cell viability (AID 651633); conditions: p53RE-bla HCT-116 viability, ATP luminescence, 16 h; series mostly up to 83.3 µM; note: nearly all actives have a fitted effect of over 30% in size
Method in brief: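 p53RE-bla cells were treated with compound for 16 hours at 37 C. Cytotoxicity was then measured as CellTiter-Glo luminescence after 30 min at room temperature.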
Potency is the fitted concentration of half-maximal effect; tags give direction and shape of the fitted curve or compound fluorescence and quenching.

COP(=S)(OC)Oc1ccc([N+](=O)[O-])cc1Cl
Potency [1]: inactive
Potency [2]: inconclusive: 61.1 µM [falling, single point]
Potency [3]: inconclusive: 34.4 µM [cytotoxic, partial curve, poor fit]

C#CCOS(=O)OC1CCCCC1Oc1ccc(C(C)(C)C)cc1 (stereo not given)
Potency [1]: inconclusive: 9.7 µM and inconclusive: 3.06 µM [activator, full curve, poor fit]
Potency [2]: inconclusive: 2.73 µM [falling, partial curve, poor fit]
Potency [3]: active: 3.86 µM
Potency [4]: inconclusive: 49 µM [falling, partial curve]
Potency [5]: active: 21.9 µM and inconclusive: 4.36 µM [cytotoxic, full curve]
Potency [6]: active: 4.33 µM and active: 2.43 µM

CCC[CH2][Sn]([CH2]CCC)([O]C(C)=O)[O]C(C)=O
Potency [1]: active: 1.95 µM
Potency [2]: active: 1.23 µM
Potency [4]: inconclusive: 1.11 µM [activator, single point]
Potency [7]: active: 0.35 µM
Potency [8]: inconclusive: 61.7 µM [cytotoxic]
Potency [9]: inconclusive: 24.8 µM [cytotoxic, partial curve, poor fit]

CCCCCCCCCCCCCCC(Br)C(=O)O (stereo not given)
Potency [1]: inconclusive: 48.6 µM [cytotoxic, partial curve]
Potency [2]: inconclusive: 61.1 µM [falling, partial curve, poor fit]
Potency [10]: inconclusive: 68.6 µM [inhibitor, single point]
Potency [4]: inconclusive: 54.9 µM [cytotoxic]
Potency [5]: inconclusive: 54.9 µM [cytotoxic, single point]
Potency [8]: inconclusive: 68.6 µM [cytotoxic, single point]
Potency [6]: inconclusive: 43.3 µM [cytotoxic, partial curve]

O=C(Cc1ccccc1)OCCc1ccccc1
Potency [1]: inactive
Potency [2]: inactive
Potency [10]: inactive
Potency [11]: inconclusive: 61.1 µM [cytotoxic, partial curve, poor fit]
Potency [6]: active: 61.1 µM

O=C1C(Cl)=C(Cl)C(=O)C(Cl)=C1Cl
Potency [1]: active: 30.5 µM and active: 6.11 µM
Potency [2]: inconclusive: 76.6 µM [falling, partial curve, poor fit]
Potency [3]: active: 30.5 µM and active: 27.3 µM
Potency [10]: active: 8.6 µM and active: 8.63 µM
activation [4]: inconclusive: 16.4%
Potency [7]: inconclusive: 38.8 µM [cytotoxic, partial curve] and active: 30.9 µM
Potency [5]: inconclusive: 54.8 µM [cytotoxic, single point]

Oc1cccc(Cl)c1
Potency [1]: inactive
Potency [2]: inactive
Potency [11]: inactive

CCc1nn(C)c(C(=O)NCc2ccc(C(C)(C)C)cc2)c1Cl
Potency [1]: inconclusive: 38.6 µM [falling, partial curve, poor fit]
Potency [12]: inconclusive: 77 µM [cytotoxic, partial curve, poor fit]
Potency [10]: active: 15.4 µM
Potency [4]: inconclusive: 54.9 µM [cytotoxic, single point]
Potency [7]: inconclusive: 19.5 µM [inhibitor, partial curve]
Potency [5]: inconclusive: 54.9 µM [cytotoxic, single point]
Potency [8]: active: 0.077 µM

CCC[CH2][Sn]([CH2]CCC)([CH2]CCC)[O]C(=O)c1ccccc1
Potency [1]: inconclusive: 0.77 µM [cytotoxic, full curve]
Potency [2]: active: 1.22 µM
Potency [3]: active: 2.17 µM
Potency [10]: active: 0.077 µM
Potency [9]: active: 0.692 µM

Cc1nnc2n1-c1sc(CCc3ccc(CC(C)C)cc3)cc1C(c1ccccc1Cl)=NC2C (stereo not given)
Potency [1]: inconclusive: 23.7 µM [cytotoxic, partial curve]
Potency [2]: inconclusive: 26.6 µM [falling, partial curve]
Potency [10]: active: 21.1 µM
Potency [4]: inconclusive: 16.9 µM [cytotoxic, partial curve]
Potency [7]: inconclusive: 26.8 µM [cytotoxic, single point]
Potency [5]: active: 23.9 µM
Potency [6]: active: 13.3 µM

COP(=O)(OC)O/C(=C\Cl)c1cc(Cl)c(Cl)cc1Cl
Potency [1]: inconclusive: 68.6 µM [activator]
Potency [2]: inconclusive: 6.86 µM [falling, partial curve, poor fit]
Potency [10]: inconclusive: 1.09 µM [rising, full curve]
Potency [9]: inconclusive: 43.6 µM [cytotoxic]

Reference: PubChem BioAssay (Tox21)
